The RNAGym collection of RNA variant scans (doi:10.7554/elife.90254)
The source gives no read counts; variants with many changes may rest on few reads.

B1: LINE1-mini (parent)
chain: GGCAGAGCUCAACACAGCGUGGCAAAGUGGCUGUGGCUAGACUGCC

Variants of: B1
Experiment: self-cleavage, relative activity (ratio to wild type); higher = more cleavage; in vitro, sequencing; the parent is a self-cleaving ribozyme

Variant	self-cleavage
C10A U34A C45G	0.03
C10A U34G C45A	0.03
C10A U43C C45U	0
C10G A11C A16U G19A U20C G30A U38G	0
C10G A11C A24U U28A C46U	0.01
C10G A11C G19U G27A C31A C37A	0
C10G A11C G27A U28G C45U	0.01
C10G A11C G30A	0.03
C10G A11G G17C G30C G33U	0.02
C10G A11G G30C U32G A41C	0
C10G A11U C15U A16C C18A A26C	0.03
C10G A11U C23G	0.02
C10G A11U C23U C42A	0.01
C10G A11U G30U U34C G35A	0.01
C10G A11U U34A G36U	0.02
C10G A12C G27U U28C	0.01
C10G A12G C13A C15A	0.01
C10G A12G C15G G21U U28G G35A C45A	0
C10G A12G C18G C23U G30C C31U A39U	0.01
C10G A12G C31A	0.01
C10G A12G U34A U38G	0.02

Variant	self-cleavage
C10G A12U C45U	0.01
C10G A14C C23A A25U G29A C45A	0.01
C10G A14C C46A	0.02
C10G A14G G17U	0.01
C10G A14U A41G	0
C10G A14U G35U	0.03
C10G A14U G36A C42A	0.02
C10G A14U U28C G36A	0
C10G A14U U28G	0
C10G A16C U20G G22A A24U U34C	0
C10G A16G G27A	0.05
C10G A16U G19C G21C U28G A39G C42G G44C	0.01
C10G A16U G29C	0.09
C10G A16U U20C G33U U34A C42G	0
C10G A24C C42G	0.02
C10G A24G C46G	0.1
C10G A24U A41C	0.01
C10G A24U C45U	0.19
C10G A25C G27U	0.04
C10G A25C G40C C46U	0.01
C10G A25C U38C	0.02

Variant	self-cleavage
C10G A25G C37U	0.03
C10G A26C C31U A39G G44U	0.01
C10G A26C C45G	0.01
C10G A26G G35A	0.01
C10G A26U C46A	0.09
C10G A41G G44C	0.04
C10G A41U G44U C45G	0.01
C10G C13A G17C G19A	0.01
C10G C13A G29U	0.01
C10G C13A G33U A41C C42U	0.01
C10G C13G C31G	0
C10G C13U C18U G33C	0.03
C10G C13U C37A C45U	0.01
C10G C13U G17U C45A	0.03
C10G C13U G29U	0.03
C10G C13U G35C U38G C45A	0
C10G C15A G21U A26C U32A G33C	0.01
C10G C15A G21U G30A U32A U34G	0.01
C10G C15A G35U	0.02
C10G C15A G36C A39G	0
C10G C15G A24G G27C G30A G36U U38G	0

Variant	self-cleavage
C10G C15G U34C U43G C46U	0.01
C10G C15U G21C C23U C42A	0.02
C10G C15U U20A A25C	0.06
C10G C18U G27A G35U	0
C10G C23A G29U	0.05
C10G C23G A25U G44C	0.08
C10G C23G G44C	0.01
C10G C23G U34C	0.01
C10G C23U G30C A41C	0.01
C10G C23U G33C U38C G44A	0.01
C10G C23U U38A C42U	0.04
C10G C31U U34G G40C	0.03
C10G C37A C45A	0.01
C10G C37U U43C	0.01
C10G C42U C45U	0.02
C10G G17A G21A C31A	0.06
C10G G17A G27C G29A G30C C37A	0.01
C10G G17A G29C C42A	0.01
C10G G17C C18U G19U C31G	0
C10G G17C G36C U38C	0.02
C10G G17U G22U A24C A26C C42G	0.02
